Data from the RNAGym collection of RNA variant scans (doi:10.7554/elife.90254).
Read counts are not given, so values of variants with three or more changes are uncertain.

B1: LINE1-mini (parent)
chain: GGCAGAGCUCAACACAGCGUGGCAAAGUGGCUGUGGCUAGACUGCC

Variants of: B1
Test: self-cleavage, relative activity (ratio to wild type); higher = more cleavage; in vitro, sequencing; the parent is a self-cleaving ribozyme
Variant A12U U20G C42G has a self-cleavage of 0.01.
A12U C23G A24U showed a self-cleavage of 0.12.
In the case of A12G G29C G40A C45U, the self-cleavage is reported as 0.04.
With A12G G36C C46A the self-cleavage was 0.01.
For A12U U20A G33C, the self-cleavage was 0.01.
A12G G17U G19A U20C C37U G40C gave a self-cleavage of 0.05.
Variant A12U G29A C37A has a self-cleavage of 0.05.
With A12U G29A C37U the self-cleavage was 0.02.
With A12G C42A G44A the self-cleavage was 0.04.
For A12U A14G G17A C18A U20G G30U A39G G40U C45U, the self-cleavage was 0.01.
Work on A12G G17C G19A U32G G35A yielded a self-cleavage of 0.01.
A12G G22A G29A G40U gave a self-cleavage of 0.02.
A12U A14G C18A G33A U38G showed a self-cleavage of 0.02.
Variant A12G C18G U20C has a self-cleavage of 0.01.
For A12U C23A G27A A41C, the self-cleavage was 0.01.
A12G C13U C15A C37U G44U gave a self-cleavage of 0.03.
A12G G19U A26G gave a self-cleavage of 0.09.
Work on A12U C15A A16G yielded a self-cleavage of 0.02.
With A12U G17C G33U the self-cleavage was 0.05.
In the case of A12U C23A C46U, the self-cleavage is reported as 0.57.
Variant A12U A14G A16U G21C G33C U38G has a self-cleavage of 0.02.
A12U G35U A41C gave a self-cleavage of 0.09.
Work on A12U U20G G27U G44C yielded a self-cleavage of 0.04.
Work on A12U A26G A39G yielded a self-cleavage of 0.02.
Work on A12U G17U C31U U32G G44U C45A yielded a self-cleavage of 0.01.
Work on A12G C18G G19U G30A U32C C45G yielded a self-cleavage of 0.01.
For A12U C13G U20G, the self-cleavage was 0.03.
With A12G C13U G22A G33C A41G the self-cleavage was 0.08.
In the case of A12G G21C C45G, the self-cleavage is reported as 0.01.
With A12U A16G A25G G44C the self-cleavage was 0.05.
In the case of A12U U28A G35A, the self-cleavage is reported as 0.03.
Work on A12U G22U C31G yielded a self-cleavage of 0.02.
Work on A12G C31A U38C G44A yielded a self-cleavage of 0.08.
With A12G C15U G29C G30C the self-cleavage was 0.01.
In the case of A12G C15G A24G C31U G33A G35U, the self-cleavage is reported as 0.01.
Variant A12G U34A G40U has a self-cleavage of 0.02.
C13A A14C U34A showed a self-cleavage of 0.03.
In the case of A12G U20G C31U A41G, the self-cleavage is reported as 0.01.
Variant A12G G30U A41C has a self-cleavage of 0.02.
With A12U A16U U20A the self-cleavage was 0.13.
With A12G U20G U38G the self-cleavage was 0.01.
With A12U A16C G40A C42G the self-cleavage was 0.08.
With A12U G21A G22U G27U G33U G40C C46U the self-cleavage was 0.
Variant A12G C31U U32A G44U has a self-cleavage of 0.13.
Variant A12G C18A A39U has a self-cleavage of 0.
In the case of A12G C18A G36C A41C U43A, the self-cleavage is reported as 0.03.
A12G G22U G40U A41C gave a self-cleavage of 0.02.
Variant A12U A24G G27C G40C has a self-cleavage of 0.04.
With A12U A14U G21C C37G the self-cleavage was 0.02.
A12U G17A G19C G36U C37A gave a self-cleavage of 0.
For A12U U20C C31G, the self-cleavage was 0.01.
With A12G C13G G21U U34A the self-cleavage was 0.05.
A12G G36A A39C showed a self-cleavage of 0.03.
For A12U C31U U32G G36U, the self-cleavage was 0.01.
With A12G C18A U28G U34A the self-cleavage was 0.04.
Work on A12G C18U A26U G33A yielded a self-cleavage of 0.16.
With A12G C18A G27A G36A the self-cleavage was 0.03.
For A12G U20G G33U U38A A39U, the self-cleavage was 0.03.
In the case of A12G C15A C46G, the self-cleavage is reported as 0.05.
In the case of A12G C15U A16G A41G C46U, the self-cleavage is reported as 0.01.
Work on A12U G22C G33A G35C G44A yielded a self-cleavage of 0.01.
For A12G U20C A25C G40A G44A, the self-cleavage was 0.
In the case of A12U U20A A26C, the self-cleavage is reported as 0.61.
In the case of A12G C13U C18U C31A U43C, the self-cleavage is reported as 0.02.
With A12G C31G U38G the self-cleavage was 0.01.
Variant A12U G17A C45U has a self-cleavage of 0.04.
A12U C13A G19A G21U U32G C37G gave a self-cleavage of 0.01.
For A12G C13U G21C U34A C46U, the self-cleavage was 0.02.
Variant A12G C13G G36U has a self-cleavage of 0.04.
In the case of A12G G19C U32C G40A, the self-cleavage is reported as 0.04.
With A12G U20G G36A the self-cleavage was 0.02.
A12G G19C U34A G35C gave a self-cleavage of 0.01.
For A12U G19A G30A U34A U38C, the self-cleavage was 0.02.
Work on A12G U34G G35C G40U yielded a self-cleavage of 0.
With A12U U28C G40A C42A U43A the self-cleavage was 0.04.
Variant A12G U34G U43A has a self-cleavage of 0.06.
In the case of A12G C45A C46A, the self-cleavage is reported as 0.05.
A12G U20A A25G U32G G40A C46U showed a self-cleavage of 0.01.
Work on A12G G33U A39C yielded a self-cleavage of 0.03.
Work on C13A A14C A26C C31U A41C yielded a self-cleavage of 0.
In the case of A12G G17C G35U A41U, the self-cleavage is reported as 0.03.
Variant A12U G33U U43G C46G has a self-cleavage of 0.
In the case of A12U G29C G35C U43A, the self-cleavage is reported as 0.01.
A12U G22A U38A showed a self-cleavage of 0.09.
With A12G C18A A24C U32A the self-cleavage was 0.01.
Variant A12G U38A C42A has a self-cleavage of 0.02.
Work on A12U U34A A39C G40U yielded a self-cleavage of 0.
A12G G19A U32G showed a self-cleavage of 0.04.
A12G U38G G40U gave a self-cleavage of 0.05.
Variant C13A A14G G17A G27C A41U has a self-cleavage of 0.03.
Work on A12U C15G G29U U32G yielded a self-cleavage of 0.02.
A12G G19U G29C C31U G40U gave a self-cleavage of 0.02.
For A12U C23U G27A, the self-cleavage was 0.97.
Variant A12U A26G G40U G44C has a self-cleavage of 0.03.
A12U A14U G44U gave a self-cleavage of 0.06.
Variant A12G U43C G44U has a self-cleavage of 0.03.
A12U G29U G30A G44U gave a self-cleavage of 0.12.
For A12U G29C G30C, the self-cleavage was 0.06.
A12U G29C G30U showed a self-cleavage of 0.13.
A12G G21A G33C gave a self-cleavage of 0.02.
In the case of A12G C37A G44A C45U C46G, the self-cleavage is reported as 0.04.
Variant A12G G17A A41U has a self-cleavage of 0.01.
Work on A12U G17A G44A yielded a self-cleavage of 0.05.
For A12G G17U C23U, the self-cleavage was 0.02.
For A12G G17U G29U U34A, the self-cleavage was 0.01.
With A12G C31A C45A the self-cleavage was 0.14.
For A12U A14U C15G A16C C18G G27A C37A, the self-cleavage was 0.02.
Variant A12U A25C C37A has a self-cleavage of 0.02.
Work on A12G C23A G35U yielded a self-cleavage of 0.02.
Work on A12U A14G G21A G44C yielded a self-cleavage of 0.1.
In the case of A12G G21A U28C U38G A41G, the self-cleavage is reported as 0.
Work on A12G G30U U34A yielded a self-cleavage of 0.04.
For C13A A14G C37U, the self-cleavage was 0.12.
In the case of A12U G35C G36U, the self-cleavage is reported as 0.04.
A12U G29C G30U C31G U38C gave a self-cleavage of 0.01.
Work on A12U G22A G30A G35C yielded a self-cleavage of 0.01.
Work on A12U G19U A24C G27C U32C C37A yielded a self-cleavage of 0.02.
With A12U A16U G35U the self-cleavage was 0.02.
In the case of A12U A14U G21C, the self-cleavage is reported as 0.68.
For A12G C13G G17A U28G G29U G36A, the self-cleavage was 0.01.
Variant A12G G27U C31U has a self-cleavage of 0.02.
With A12G G21U G29C G36U the self-cleavage was 0.01.
Variant A12U C15A C23U has a self-cleavage of 0.02.
Variant A12U A14C A16U A39C has a self-cleavage of 0.09.
In the case of A12U G17U C18U A25U A26G, the self-cleavage is reported as 0.02.
With A12G C13U G22U the self-cleavage was 0.02.
For A12G G19C A25U, the self-cleavage was 0.04.
Variant A12U G17U C45G has a self-cleavage of 0.04.
Work on A12U G21A A26C C45U yielded a self-cleavage of 0.4.
With A12U A25G A26C C46G the self-cleavage was 0.3.
In the case of A12G G19U C37A, the self-cleavage is reported as 0.03.
A12U A16G G35U gave a self-cleavage of 0.12.
A12G G17A C37G U43G C45U showed a self-cleavage of 0.01.
In the case of A12U A14C A39U, the self-cleavage is reported as 0.06.
A12U C18A G29U G40U gave a self-cleavage of 0.08.
With A12G U28G C45G the self-cleavage was 0.02.
With A12G G19A A26G the self-cleavage was 0.
A12G U34G A39G showed a self-cleavage of 0.01.
A12G G30A C37G gave a self-cleavage of 0.01.
For A12U G21A G35U A41U, the self-cleavage was 0.08.
A12U A16U A25C G29U showed a self-cleavage of 0.07.
In the case of A12G G19C A24U G33A C37A, the self-cleavage is reported as 0.03.
Work on A12G C23G G35U yielded a self-cleavage of 0.01.
A12G U28C G30U gave a self-cleavage of 0.01.
In the case of A12U C18U U38C A39G, the self-cleavage is reported as 0.02.
Work on A12U C15U G30U C37G A41C yielded a self-cleavage of 0.01.
For A12U G30A C31G G33C U34C, the self-cleavage was 0.03.
With A12U C18U G19A the self-cleavage was 0.17.
In the case of A12G C15G U20C A24G A41U, the self-cleavage is reported as 0.02.
A12G U20A C23G G35U C37U A39G showed a self-cleavage of 0.
In the case of A12G G22A G40A G44C, the self-cleavage is reported as 0.05.
Variant A12U C15U A16U G21U has a self-cleavage of 0.02.
A12U C15G C23G showed a self-cleavage of 0.03.
Work on A12U A16C G22U yielded a self-cleavage of 0.02.
Variant A12G G27U G33C has a self-cleavage of 0.03.
For A12U C13A G27U G40C, the self-cleavage was 0.02.
For A12U U28C G36A G40C, the self-cleavage was 0.16.
With A12G C15G A16U C18U the self-cleavage was 0.03.
A12U G17U G19C gave a self-cleavage of 0.1.
Variant A12U G19C C23G G30A C37G has a self-cleavage of 0.01.
Variant A12U C31U C42U has a self-cleavage of 0.08.
A12U G17A G29U G44U showed a self-cleavage of 0.05.
With A12U G29C G33U the self-cleavage was 0.06.
In the case of A12U A14G G17A G19U, the self-cleavage is reported as 0.02.
A12U C13G C15U gave a self-cleavage of 0.03.
Variant A12U G17U U34G has a self-cleavage of 0.01.
With A12U C13U G19C U28G G30A the self-cleavage was 0.06.
